Patent US20220031697A1, “Dose and regimen for an hdm2-p53 interaction inhibitor in hematological tumors” (Novartis AG, priority 2017, published 2022)

Test system: patients with hematological tumors
Experiment: Phase I study CHDM201X2101: safety and tolerability (adverse events, DLTs)
Details: Regimen 2C, 1 DLT out of 8 evaluable patients in cycle 1

**Q.** Which “Dose to which BLRM allowed to escalate” value does the source give for `COc1ncc(-c2nc3c(n2C(C)C)[C@H](c2ccc(Cl)cc2)N(c2cc(Cl)cn(C)c2=O)C3=O)c(OC)n1` [HDM201, (S)-5-(5-Chloro-1-methyl-2-oxo-1,2-dihydro-pyridin-3-yl)-6-(4-chloro-phenyl)-2-(2,4-dimethoxy-pyrimidin-5-yl)-1-isopropyl-5,6-dihydro-1H-pyrrolo[3,4-d]imidazol-4-one] here?
**A.** The value was “up to 90 mg”.
